Data taken from PubChem BioAssay AID588342 (National Center for Advancing Translational Sciences (NCATS), 2011).
The campaign covered roughly 360,000 compounds. About 25,000 (6.9%) were called active. The shares of active, inactive and inconclusive entries below differ from those in the screen. The call rests on the fitted dose curve; in most records, active means well fitted inhibition curve with a large enough effect; inconclusive means small, poorly fitted or top-dose-only effect; inactive means flat fitted curve, though single readings scatter. Potencies of inconclusive entries are doubtful fits and often do not repeat.

target: Luciferin 4-monooxygenase (Photinus pyralis) (UniProt P08659); experiment: qHTS profiling assay for firefly luciferase inhibitor/activator using purifed enzyme and Km concentrations of substrates (counterscreen for miR-21 project); settings: purified FLuc, luminescence inhibition; series mostly up to 57.5 µM; further: nearly all actives have a fitted effect of over 55% in size
How it was run: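 Purified P. pyralis luciferase, 10 nM final, with Km-level 10 uM D-luciferin and 10 uM ATP in 50 mM Tris acetate pH 7.5, 10 mM Mg acetate, 0.01% Tween-20, 0.05% BSA; 6-point qHTS titration about 60 µM downward; luminescence read.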
Potency means the concentration at half of the fitted maximal effect; tags describe the fitted curve by direction and shape.

Chain of UniProt P08659 (P08659 whole entry, looked up): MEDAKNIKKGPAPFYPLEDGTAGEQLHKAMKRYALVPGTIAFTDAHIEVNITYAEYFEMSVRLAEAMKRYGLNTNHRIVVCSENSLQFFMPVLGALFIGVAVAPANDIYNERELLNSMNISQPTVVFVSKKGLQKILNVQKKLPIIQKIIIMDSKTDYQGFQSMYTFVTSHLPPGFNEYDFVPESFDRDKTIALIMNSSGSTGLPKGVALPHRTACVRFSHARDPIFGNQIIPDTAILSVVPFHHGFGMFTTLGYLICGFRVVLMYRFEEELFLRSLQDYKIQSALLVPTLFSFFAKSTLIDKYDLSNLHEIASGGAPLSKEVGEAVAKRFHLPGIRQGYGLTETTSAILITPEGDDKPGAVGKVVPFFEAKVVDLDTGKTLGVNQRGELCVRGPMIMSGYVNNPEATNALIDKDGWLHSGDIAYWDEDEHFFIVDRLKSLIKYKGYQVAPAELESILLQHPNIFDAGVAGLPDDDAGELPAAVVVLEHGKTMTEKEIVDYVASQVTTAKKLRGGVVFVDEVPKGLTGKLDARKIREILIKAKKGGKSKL

Row | SMILES | Potency
1 | CN(c1cccc(NC(=O)CN2C(=O)c3ccccc3S2(=O)=O)c1)S(C)(=O)=O | active: 26.9 µM
2 | CCc1nc(SCc2ccccc2)n[nH]1 | inconclusive: 37.9 µM [inhibitor, partial curve, poor fit]
3 | O=C([O-])c1cc(-c2ccccc2)cc(-c2ccccc2)[n+]1Cc1ccccc1 | inconclusive: 33.8 µM [inhibitor, partial curve, poor fit]
4 | O=C(NCCc1ccc(Cl)cc1)C1CCN(C(=O)c2ccc(F)cc2)CC1 | inactive
5 | O=C(NC(Cc1c[nH]c2ccccc12)C(=O)N/N=C/c1cccnc1)c1cccs1 (configuration not stated) | inactive
6 | Cc1ccc(F)cc1NC(=O)CSc1nnc(CNC(=O)c2ccco2)n1C | inactive
7 | CC(NC(=O)CN1C(=O)NC(c2ccccc2)(c2ccccc2)C1=O)c1cccs1 (configuration not stated) | inactive
8 | O=C(Nc1ccc2c(c1)OCCO2)c1cccc(S(=O)(=O)N2CCCCC2)c1 | inconclusive: 23.9 µM [inhibitor, partial curve, poor fit]
9 | O=C(NCCCN1CCOCC1)C(=O)NCC1OCCCN1S(=O)(=O)c1cc(F)ccc1F (configuration not stated) | inactive
10 | COc1ccc(-c2cc(C(=O)NCc3ccc(F)cc3)no2)cc1 | inactive
11 | Cc1cccc(N/C=C/C(=O)c2ccc(Cl)cc2)c1 | active: 0.675 µM
12 | Cc1ccnc(NC(=O)c2ccc(Cl)c(NC(=O)CCc3ccccc3)c2)c1 | inconclusive: 21.3 µM [inhibitor, partial curve, poor fit]
13 | Cc1nn(-c2ccccc2)c(C)c1/C=N/NC(=O)c1cnccn1 | inconclusive: 33.8 µM [inhibitor, single point]
14 | CC(=O)c1ccc(N2CCN(c3nc4c(S(=O)(=O)c5ccc(C)c(C)c5)nnn4c4ccc(Cl)cc34)CC2)cc1 | inactive
15 | Cn1cccc1C(=O)OCc1cc(Cl)cc2c1OCOC2 | active: 13.5 µM
16 | Cc1ccccc1C(=O)Nc1ccccc1C(=O)NC1CC1 | inactive
17 | CCC(C(=O)Nc1cc(OC)ccc1OC)n1c(=O)c(C(F)(F)F)nc2ccccc21 (configuration not stated) | inactive
18 | O=C(CCCn1c(=O)c2ccccc2n(CC(=O)Nc2cccc(Cl)c2)c1=O)NCc1ccc2c(c1)OCO2 | inactive
19 | CCCCOC(=O)Nc1ccc(S(=O)(=O)Nc2onc(C)c2C)cc1 | inconclusive: 37.9 µM [inhibitor, single point]
20 | O=C(COc1ccc(F)cc1F)N1CCCCCCC1 | inactive
21 | CCc1ccc(NC(=O)Cc2csc(COc3cccc(C)c3)n2)cc1 | inactive
22 | O=C1C(Cl)=C(N2CCOCC2)C(=O)N1c1ccc(Br)cc1 | inconclusive: 37.9 µM [inhibitor, partial curve, poor fit]
23 | Cn1c(=O)c(-c2ccccc2)nc2ccccc21 | inconclusive: 23.9 µM [inhibitor, partial curve, poor fit]
24 | O=C(Nc1ccc2c(c1)CCC2)c1cccc(F)c1 | active: 5.36 µM

Row | SMILES | Potency
25 | COC(=O)c1ccccc1NC(=O)NCc1ccc2c(c1)OCO2 | inconclusive: 10.7 µM [inhibitor, partial curve, poor fit]
26 | Cc1ccc(C(=O)CSc2n[nH]c(C)n2)cc1 | inconclusive: 37.9 µM [inhibitor, partial curve, poor fit]
27 | Cc1occc1-c1nc(-c2ccncc2)no1 | inconclusive: 37.9 µM [inhibitor, partial curve, poor fit]
28 | CCCCCSc1nnc2c(n1)OC(CC)Nc1ccc(Br)cc1-2 (configuration not stated) | inconclusive: 21.3 µM [inhibitor, single point]
29 | Cc1c(Cl)c(C(=O)NNC(=S)Nc2ccc(F)cc2)nn1C | inconclusive: 16.9 µM [inhibitor, single point]
30 | CCOc1ccc(-c2cc(CCCC(=O)NCc3ccc(C)cc3)no2)cc1 | inconclusive: 8.49 µM [inhibitor, partial curve]
31 | COc1ccc(/C=C/C(=O)c2ccc(NC3=NCCCS3)cc2)cc1OC | inconclusive: 26.9 µM [inhibitor, partial curve]
32 | Cc1cccc(N2CC(c3nc4ccccc4n3CCC3CCCCC3)CC2=O)c1 (configuration not stated) | inactive
33 | CC(C)c1ccc(N2CCN(C(=O)c3ccccc3NC(=O)/C=C\C(=O)O)CC2)cc1 | inactive
34 | CCc1ccc(S(=O)(=O)c2nnn3c2nc(Nc2cc(OC)cc(OC)c2)c2cc(Cl)ccc23)cc1 | inactive
35 | COc1ccc2nc(NC(=O)CSC(C)C(=O)Nc3cc(C)on3)sc2c1 (configuration not stated) | inconclusive: 16.9 µM [inhibitor, partial curve]
36 | Cc1ccc(-c2nc(CN(C)Cc3cccc4cnccc34)c(C)o2)s1 | inactive
37 | S=C(NCc1ccco1)Nc1cc(-c2ccccc2)[nH]n1 | inconclusive: 21.3 µM [inhibitor, single point]
38 | COc1ccc(N/C=C/C(=O)c2sc(-c3ccccc3)nc2C)cc1 | active: 6.75 µM
39 | COc1cc(/C=N/NC(=O)CSc2ccccn2)ccc1O | inconclusive: 23.9 µM [inhibitor, single point]
40 | CCOC(=O)N1CCc2c(sc3c2c(=O)n(-c2ccc(Cl)cc2)c(=O)n3Cc2cccc(OC)c2)C1 | inactive
41 | N#C/C(=N\Nc1ccc(Cl)cc1)C(=O)c1ccsc1 | inconclusive: 23.9 µM [inhibitor, single point]
42 | CNC(=O)Cn1nc(C)c2ccccc2c1=O | inactive
43 | c1ccc2c(C[n+]3csc4ccccc43)cccc2c1 | inconclusive: 15.1 µM [inhibitor, partial curve]
44 | S=C(NCc1ccco1)Nc1ccc(Cl)cc1Cl | inconclusive: 16.9 µM [inhibitor, partial curve]
45 | O=c1c(N2CCN(c3cccc(Cl)c3)CC2)csc2ccccc12 | inconclusive: 42.6 µM [inhibitor, partial curve, poor fit]
46 | Cc1ccnc2nc(C(=O)Nc3nnc(-c4ccc(Cl)cc4)o3)nn12 | inconclusive: 37.9 µM [inhibitor, partial curve, poor fit]
47 | CCN(CC)S(=O)(=O)c1ccc(Nc2nc3ccccc3n3nnnc23)cc1 | inconclusive: 16.9 µM [inhibitor, partial curve]
